Here are results for 22 molecules from paper PMC12136788.

Sequences and labels used below:
T1: UNK ZnF1-6 (called full-length) (human, UniProt Q9C0B0 30-357)
T1 sequence: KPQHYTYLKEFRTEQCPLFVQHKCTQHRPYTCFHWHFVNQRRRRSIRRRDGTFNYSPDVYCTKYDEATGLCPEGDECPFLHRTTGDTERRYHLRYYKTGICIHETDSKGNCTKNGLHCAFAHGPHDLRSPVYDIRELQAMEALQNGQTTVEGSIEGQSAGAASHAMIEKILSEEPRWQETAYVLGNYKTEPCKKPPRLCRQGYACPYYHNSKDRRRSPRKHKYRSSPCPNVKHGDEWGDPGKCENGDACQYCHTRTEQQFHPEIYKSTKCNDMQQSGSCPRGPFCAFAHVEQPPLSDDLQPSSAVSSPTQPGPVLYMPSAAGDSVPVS

B1: chr7:6023389:6023508:+|CDS|ENSG00000106305|unk|total|mutant (ssRNA)
RNA: GGGAGUUCUACAGUCCGACGAUCGUUCUCUCUGUUUGGCCAGAAGCAUAAUGCUGUCAACGCAACCCUUACCGACCGCUGGGCCGAUAUUGCGAUUUUUCAGUUAAAAGAGGGAAGCAGUAAAGAAAAAGCCGCUGUUUUCCGCAACAGAGGAUUGAGCAUCA
B2: chr5:113594843:113594944:+|3pUTR|ENSG00000047188|msi1|total|mutant (ssRNA)
RNA: GGGAGUUCUACAGUCCGACGAUCCAACAUAAAAUCUUGAGAACCUUCUACUUUCUCUGGGAAAGCAUUAUACCGUGGUGCAUCCGUUCCGAAAGUCAGCUAUGAUUUUGCCUACCGUUCCCGUUAUCCGCUUUGGGGUUUUCUCAACAGAGGAUUGAGCAUCA
B3: chr16:18841627:18841728:-|CDS|ENSG00000157106|msi1|FALSE|bound_elsewhere (ssRNA)
RNA: GGGAGUUCUACAGUCCGACGAUCUACAAUUAAUCGCCAAGAAACACCCCGGUUCCAUGCUCGACACUAUUCUGUAACACCACUAGGAACAAGAUCAGGACUAAUCCAGUGGGUAGAUGGAGCCACACCCUUAUUUGGUCUUUACAACAGAGGAUUGAGCAUCA
B4: chr1:225491636:225491737:-|3pUTR|ENSG00000154380|msi1|FALSE|unique (ssRNA)
RNA: GGGAGUUCUACAGUCCGACGAUCGUACUUUGAAUUCCAUAGGAAAAAGCACUCAGAAGAAAAAGUCUACAUUGGCUAGUGUUUAGAUUGAGAGUUAAUUUUCCCAUCAAGUCCAAAAGUUUCCAUCCAAGUCUAUAGAAACUGCAACAGAGGAUUGAGCAUCA
B5: ENSG00000198589:be:win_4551|CDS|ENSG00000198589|bound_else_gene|NA|bound_elsewhere_windowed (ssRNA)
RNA: GGGAGUUCUACAGUCCGACGAUCAGUUGUUUUCAGAGACAUAGAGGAUAGCAAACAAGCUCAAUUUUUAGCCUUGGCAGUAGUAUACUUUAUCUCUGUUCUUAUGGUCUCCAAGUACAGAGACAUUUUGGAACCCCAAAAUGACAACAGAGGAUUGAGCAUCA
B6: chrX:141173234:141176580:-|three_prime_utr|ENSG00000182195|control|control|control (ssRNA)
RNA: GGGAGUUCUACAGUCCGACGAUCCUUGCCCUCCGGUCCCCUUACCUACCCGCGCCCGUCUGCUCUCUCUCUUCAUUUCUCCGUAGUGCUUGUCUUUGUUCCAGGAAUAGCGCUCCAGUUACCUGCUGCUGGGGUCGGGGCUGGCAACAGAGGAUUGAGCAUCA
B7: ENSG00000090612:stop:overlap|stop_codon|ENSG00000090612|stop_codon|NA|stop_codon (ssRNA)
RNA: GGGAGUUCUACAGUCCGACGAUCUGCUCACCACAACGUCUGCUUCCCGAGUUCAAGUGGUUCUCUUGCCUCAGCCUCCUGAGUAGCUGGGAUUACAGGUCCCACCUCUCCAAGAACGAAACAGUUCAUGGGAUAGGAUCAGAACAACAGAGGAUUGAGCAUCA
B8: chr2:135868693:135868794:-|CDS|ENSG00000076003|msi1|total|mutant (ssRNA)
RNA: GGGAGUUCUACAGUCCGACGAUCCCCAGAGCUUGUGAGCGGAACUUUUCUGUGCUUGGACUGUCAGACAGUGAUCAGGGAUGCCGAACAGCAGUUCAAAUACACACAGCCAAACAUCUGCCGAAAUCCAGUUUGUGCCAACAGCAACAGAGGAUUGAGCAUCA
B9: chr4:41958937:41959038:+|3pUTR|ENSG00000109133|msi1|FALSE|unique (ssRNA)
RNA: GGGAGUUCUACAGUCCGACGAUCUCUUGAACUCCUGGCCUCAAGUGAUCUGCCCGCCUCGACCUCCCAGAGUGCUGGGAUUAUAGGUGUGAGCCACUAAGCCUGGCUGAGACAACUAGUUUCCCUUAACUCAUUGGAAUUCUCCAACAGAGGAUUGAGCAUCA
B10: chr7:30013596:30013706:-|3pUTR|ENSG00000106080|msi1|FALSE|unique (ssRNA)
RNA: GGGAGUUCUACAGUCCGACGAUCUUAUAUUCAAUAUUUACUUCUUAAGGCUAGCGGAAUAUCCUUCCUGGUUCUUUAAUGGGUAGUCUAUAGUAUAUUAUACUACAAUAACAUUGUAUCAUAAGAUAAAGUAGUAAACCAGUCCAACAGAGGAUUGAGCAUCA
B11: chr15:38470281:38470388:+|CDS|ENSG00000171262|unk|total|mutant (ssRNA)
RNA: GGGAGUUCUACAGUCCGACGAUCCUUCAAGCUUCACAGAUAUUACAGAACAAGAAACAUAAAAAUUCUCAAUCCGAUAAAAACCGUGAAGUUUAUCAGGAAGUUCAAGCUAUGUUUGAUACACUUGGUAUACCCAAGUCAACACAACAGAGGAUUGAGCAUCA
B12: chr10:128103381:128103482:-|CDS|ENSG00000148773|msi1|total|mutant (ssRNA)
RNA: GGGAGUUCUACAGUCCGACGAUCAACUGGCAGCAGGAGACGGCCAAGAGCACCCAGGGAAAGUGCCCAAGCCACCGAAGACCCCGCUGGCUUCAAAGACCCAGCAGCAGGUCACACUGAAGAAUCAAUGACUGAUGACAAAACCAACAGAGGAUUGAGCAUCA
B13: ENSG00000198589:be:win_1851|CDS|ENSG00000198589|bound_else_gene|NA|bound_elsewhere_windowed (ssRNA)
RNA: GGGAGUUCUACAGUCCGACGAUCCAUGCACACGCUGAAGUACUACUACUGGGCAGUGAAUCCUCAGGAUCGAAGUGGUAUCACCCCAAAAGGAUUAGAUGGACCGCGACCUAAUCAAAAAGAAAUGCUUUCUCUACGAGCAUUCAACAGAGGAUUGAGCAUCA
B14: chr22:42796501:42797587:-|three_prime_utr|ENSG00000242247|control|control|control (ssRNA)
RNA: GGGAGUUCUACAGUCCGACGAUCGGAGAAAUUCCUCUUUAAAUGAACAAGUAACCACAUCUCAGGCGGCAGUGAAGUCCAGAUAGUUUUGCAGAUUGUUUUGCUACUUUUUCAUAUGGUAUAUGUUUCUGAUUUUUAAUAUUUCAACAGAGGAUUGAGCAUCA
B15: ENSG00000198589:be:win_5301|CDS|ENSG00000198589|bound_else_gene|NA|bound_elsewhere_windowed (ssRNA)
RNA: GGGAGUUCUACAGUCCGACGAUCACCAGGCAGUAGAUCAUCUAAUGCAAAAUUGCCCUCAGUUCCAACAGUUGAUUCAGUUUCACAAGAUCCGGUUUCAAAUAUGAGUAUUACAGAGAGGCUUGAACACGCUUUGGAAAAGGCCAACAGAGGAUUGAGCAUCA
B16: chrX:150768173:150768360:-|3pUTR|ENSG00000102181|msi1|FALSE|unique (ssRNA)
RNA: GGGAGUUCUACAGUCCGACGAUCUCCCAUCUGAUUCCAUAGGGGGCUGGGUGUGGCCUUCGGGUUGACAUGAGAAAGGUCUUUAGCAAUCAUUUCUGCACCGGAGAUGAGUUUUAUCCUGUGUUGGGGAGAGGUGCUCACCCUCAACAGAGGAUUGAGCAUCA
B17: chr17:67075675:67075776:-|3pUTR|ENSG00000198265|unk|total|mutant (ssRNA)
RNA: GGGAGUUCUACAGUCCGACGAUCAUUCCUUAUUUCCACCGCCAGUCAAGGAUUCUAACGCUGCUUCCAUCUGAUACUCUUCUCCGAUUCUGCAUCAAAUGCUUAUUUUGACUUACAACAAGCUUACUCUUCCUCAGCAUUACACAACAGAGGAUUGAGCAUCA
B18: chrX:154436128:154436291:+|3pUTR|ENSG00000071553|msi1_unk|total|mutant (ssRNA)
RNA: GGGAGUUCUACAGUCCGACGAUCAUUCCCGGGUCUCCUUUCUCCUUAUUUAUUCUUGUGGCUACAUCAUCCCUGGCUGUGGACCGUGCUUUUGUGCCGCAAAUGCUCCCUCCUUAAGGUUACCGGGCUCCCUGAGUUUGGGAGCAACAGAGGAUUGAGCAUCA
B19: chr19:51029091:51029457:-|three_prime_utr|ENSG00000186474|control|control|control (ssRNA)
RNA: GGGAGUUCUACAGUCCGACGAUCCCUUAACUUGGGUACCCCUCUGGCCCUCAGAGCACCAAUAUCUCCUCCAUCACUUCCCCUAGCUCCACUCUUGUUGGCCUGGGAACUUCUUGGAACUUUAACUCCUGCCAGCCCUUCUAACAACAGAGGAUUGAGCAUCA
B20: ENSG00000064393:stop:overlap|stop_codon|ENSG00000064393|stop_codon|NA|stop_codon (ssRNA)
RNA: GGGAGUUCUACAGUCCGACGAUCUCUCCCUGGAGAGUGGUUUUCCUGCUUUUCUGCUGCUAGAAAUGUUGCUGUAUGGGAGCUAGUACAAUAGAAAGUGCCCAGUGACUGCAGGCGACCCUUACCGAGGAUUUUAUUCAAGUACAACAGAGGAUUGAGCAUCA
B21: chr6:87085629:87085739:-|3pUTR|ENSG00000135346|unk|total|mutant (ssRNA)
RNA: GGGAGUUCUACAGUCCGACGAUCGUUUUACCAAGUGCUGUCUUGAUGACUGCUGAUUUUCUGGAAUGGAAAAUUAAGUUGUUCCGUGUUUAUGGCUUUGUGAGAUAAAACUCUCCUUUUCCUUACCAUACCACUUUGACACGCCAACAGAGGAUUGAGCAUCA
B22: chr5:177595998:177596040:+|3pUTR|ENSG00000184840|msi1_unk|FALSE|overlapping (ssRNA)
RNA: GGGAGUUCUACAGUCCGACGAUCCCUGAGCUGCUUCACAUGGUUGUCCAUUCUGGGGCUUAAAGAACUGGGACCAGACCAAGUAGAGGCCUUGGUGCUGGUUGGGGUGGGGCCUGCAGAGUCUUAGUUACUGAUUUCAUUUUCCAACAGAGGAUUGAGCAUCA

The list shows a part of the results.

In the experiment the target is T1, UNK ZnF1-6 (called full-length). As to the kind of experiment: nsRBNS (natural sequence RNA bind-n-seq); RBNS binding buffer (assumed for nsRBNS): 25 mM Tris pH 7.5, 150 mM KCl, 3 mM MgCl2, 0.01% Triton X-100, 500 ug/ml BSA, 20 U/ml SUPERase-In, 4 C; UNK is unkempt and MSI1 is Musashi-1; names of the RNAs are library labels; protein concentration not given here; high values mean tight binding.
For B1, the binding signal was 0.493 enrichment R.

B2 displayed a binding signal of 0.459 enrichment R.

B3: the binding signal was 0.869 enrichment R.

B4 showed a binding signal of 0.708 enrichment R.

In the case of B5, the binding signal stood at 1.16 enrichment R.

As to B6, the binding signal was 1.29 enrichment R.

The molecule B7 returned a binding signal of 0.41 enrichment R.

Turning to B8, the binding signal came to 0.698 enrichment R.

B9: the binding signal is 0.784 enrichment R.

The molecule B10 returned a binding signal of 1 enrichment R.

The molecule B11 yielded a binding signal of 0.213 enrichment R.

Consider B12, for which the binding signal was 0.749 enrichment R.

As for B13, the binding signal stood at 0.456 enrichment R.

B14 returned a binding signal of 1.49 enrichment R.

With B15, the binding signal came to 0.489 enrichment R.

Turning to B16, the binding signal was 1.06 enrichment R.

B17 came in with a binding signal of 0.657 enrichment R.

For the molecule B18, the binding signal came to 0.954 enrichment R.

Molecule B19 gave a binding signal of 1.19 enrichment R.

B20 had a binding signal of 0.569 enrichment R.

As for B21, the binding signal is 0.475 enrichment R.

As for B22, the binding signal came to 1.42 enrichment R.
